Data as given in the supplement of paper PMC12217912.
This is one part of the list. The full chains were built here from the parent and the listed change. Inactive controls read about 0.05.

B1: TEV protease; numbered along this chain (parent)
chain: MGESLFKGPRDYNPISSSICHLTNESDGHTTSLYGIGFGPFIITNKHLFRRNNGTLVVQSLHGVFKVKDTTTLQQHLVDGRDMIIIRMPKDFPPFPQKLKFREPQREERICLVTTNFQTKSMSSMVSDTSCTFPSGDGIFWKHWIQTKDGQCGSPLVSTRDGFIVGIHSASNFTNTNNYFTSVPKNFMELLTNQEAQQWVSGWRLNADSVLWGGHKVFMVKPEEPFQPVKEATQL

Variants of: B1
Test: raw area under fraction-flipped curve 0-4 h after induction (AUC4h, not background-subtracted), DNA-recorder readout of cleavage of the substrate (dimensionless); higher = more cleavage of the substrate by the protease variant
Details: temperature: 34 °C; time window: 0-4 h after rhamnose induction
Experimental: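 In vivo DNA recorder in E. coli TOP10(DE3) ΔrhaA at 34 °C. Each TEVp single-site mutant (parent TEVp 0) is paired with a single-site variant of the 7-mer TEVs (canonical ENLYFQ|S). The substrate sits between flexible linkers in a Bxb1-sfGFP-TEVs-SsrA fusion, so cleavage stabilises Bxb1 and speeds flipping of a recombination array, read by NGS. The value is the raw area under the fraction-flipped curve over 0-4 h after rhamnose induction (AUC4h), with ≥20 reads per time point. It is not background-subtracted; inactive controls average about 0.047.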
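Note: Bxb1 expression induced with 0.2% (w/v) L-rhamnose at OD600 near 0.5, cultures sampled hourly, flipped fraction per protease–substrate barcode pair counted by paired-end Illumina sequencing.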

| Variant | area with substrate ENLYFAS | area with substrate ENLYFCS | area with substrate ENLYFES | area with substrate ENLYFFS | area with substrate ENLYFGS | area with substrate ENLYFHS | area with substrate ENLYFIS | area with substrate ENLYFKS | area with substrate ENLYFLS | area with substrate ENLYFMS | area with substrate ENLYFNS | area with substrate ENLYFPS | area with substrate ENLYFRS | area with substrate ENLYFSS | area with substrate ENLYFTS | area with substrate ENLYFVS | area with substrate ENLYFWS | area with substrate ENLYFYS | area with substrate ENLYFDS |
| --- | --- | --- | --- | --- | --- | --- | --- | --- | --- | --- | --- | --- | --- | --- | --- | --- | --- | --- | --- |
| P222Q | 0.058 | 0.0466 | 0.0641 | 0.0658 | 0.0685 | 0.049 | 0.0831 | 0.0562 | 0.0474 | 0.0729 | 0.062 | 0.0663 | 0.0601 | 0.0571 | 0.0569 | 0.0587 | 0.0391 | 0.0637 |  |
| M188Y | 0.0419 | 0.061 | 0.0762 | 0.0673 |  |  | 0.0541 | 0.0395 |  | 0.0707 | 0.0609 | 0.0598 | 0.0363 | 0.0576 |  | 0.0479 | 0.0487 |  |  |
| K230T | 0.0512 | 0.0498 | 0.0721 | 0.0746 | 0.0716 |  | 0.0585 |  | 0.0508 | 0.0635 | 0.0719 | 0.0611 | 0.0542 | 0.0509 | 0.061 |  | 0.0695 |  |  |
| K230W | 0.0618 | 0.0578 | 0.0638 | 0.0723 | 0.0494 |  | 0.0549 | 0.0604 |  | 0.073 | 0.0626 | 0.0614 | 0.0567 | 0.0413 | 0.0348 | 0.0502 | 0.0604 |  |  |
| Q227T | 0.0517 | 0.0527 |  | 0.0841 |  | 0.0401 | 0.0606 | 0.0563 |  |  | 0.0678 | 0.0616 |  |  | 0.0553 |  |  |  | 0.0624 |
| Y179Q | 0.0658 | 0.063 | 0.0734 | 0.063 | 0.0591 |  | 0.0599 | 0.0545 | 0.0767 | 0.0538 | 0.0605 | 0.0523 | 0.05 |  | 0.05 |  | 0.0648 | 0.0661 | 0.0381 |
| P9G |  | 0.0666 | 0.0654 | 0.075 | 0.06 | 0.0651 | 0.0599 |  |  | 0.0651 |  | 0.0568 |  |  | 0.0594 | 0.0625 |  |  | 0.0553 |
| P9V |  | 0.0424 | 0.0529 |  |  | 0.0714 | 0.0546 | 0.0635 |  |  | 0.0636 |  | 0.0519 |  | 0.0647 | 0.057 | 0.0631 |  |  |
| S169R | 0.0625 | 0.0561 | 0.0599 |  |  | 0.0555 |  | 0.0823 | 0.055 | 0.0603 | 0.0575 | 0.056 |  | 0.0352 |  | 0.0554 | 0.0699 | 0.0554 | 0.0591 |
| G8V |  | 0.0873 |  |  |  | 0.0639 |  |  | 0.0653 | 0.089 |  |  |  |  |  |  |  |  |  |
| T181Y | 0.0552 | 0.0495 | 0.0446 | 0.0602 | 0.0641 |  | 0.0522 | 0.0689 | 0.0582 | 0.0517 | 0.0657 | 0.0833 | 0.0685 | 0.0562 |  | 0.0774 | 0.0519 | 0.0519 |  |
| Q194E | 0.0636 |  | 0.0649 | 0.0919 |  | 0.0616 | 0.0557 |  |  |  |  | 0.0772 |  | 0.0697 | 0.0437 | 0.0511 | 0.0485 | 0.0689 |  |
| S18L |  | 0.0584 | 0.0653 | 0.0641 | 0.0658 | 0.0551 | 0.0815 | 0.0557 |  | 0.0652 | 0.0644 | 0.0527 |  | 0.0572 | 0.0493 | 0.0471 | 0.0597 | 0.0568 |  |
| G213M | 0.0628 | 0.0648 | 0.0539 | 0.075 |  |  | 0.0546 | 0.0604 |  | 0.0594 |  | 0.0522 |  | 0.0668 | 0.0582 |  |  | 0.064 |  |
| G213W | 0.0558 | 0.0577 | 0.0562 | 0.0643 |  |  | 0.0552 | 0.0684 | 0.0605 | 0.0574 | 0.0694 | 0.0531 | 0.0581 |  | 0.0583 |  | 0.0705 | 0.0473 | 0.0661 |
| G213D | 0.0443 |  | 0.0494 | 0.0746 |  |  | 0.0584 |  |  | 0.0627 |  | 0.0672 | 0.0547 | 0.0637 | 0.0532 |  | 0.0561 |  |  |
| P14S |  | 0.055 | 0.0584 | 0.0666 | 0.0685 | 0.0595 | 0.0639 | 0.0601 | 0.0594 | 0.0683 | 0.0594 | 0.0537 | 0.0483 | 0.0521 | 0.0563 | 0.0672 | 0.0442 | 0.0635 | 0.0557 |
| F226K | 0.0601 | 0.0094 | 0.062 | 0.0714 |  | 0.0535 | 0.0439 | 0.0447 | 0.0624 | 0.0612 | 0.0615 | 0.0604 | 0.0544 | 0.0691 | 0.0636 | 0.0472 | 0.0618 | 0.0523 | 0.0625 |
| Y12E |  | 0.065 | 0.0751 | 0.068 | 0.0684 | 0.0198 | 0.0578 | 0.0567 | 0.058 | 0.0595 |  | 0.0514 | 0.0584 | 0.0508 | 0.0657 | 0.0753 | 0.0515 | 0.0675 | 0.0568 |
| Y12D |  | 0.057 | 0.0657 | 0.0593 |  |  | 0.046 | 0.0538 |  | 0.0403 | 0.0594 | 0.051 | 0.0535 |  | 0.0753 | 0.0544 |  |  | 0.0405 |
| W203E | 0.0714 | 0.0533 | 0.0595 | 0.0565 |  | 0.0553 | 0.0568 |  |  | 0.0463 | 0.0685 | 0.0826 | 0.0573 | 0.0456 |  | 0.0482 | 0.0552 | 0.0331 |  |
| F187H | 0.0656 | 0.0485 |  | 0.049 |  | 0.0549 | 0.0543 | 0.056 | 0.0498 | 0.0495 | 0.0548 | 0.0578 | 0.0815 | 0.0301 | 0.0735 |  |  | 0.0332 |  |
| F173S | 0.0589 | 0.0538 |  |  | 0.0708 | 0.0404 | 0.0761 | 0.0419 | 0.07 |  | 0.0575 | 0.0618 |  |  | 0.0521 | 0.0563 | 0.0522 | 0.0562 | 0.0753 |
| F173L | 0.0487 | 0.0492 | 0.0593 | 0.0768 |  |  | 0.0719 | 0.0453 | 0.0532 | 0.0754 |  | 0.066 |  | 0.0794 |  | 0.0734 |  |  |  |
| E223R | 0.064 |  | 0.0571 | 0.0708 | 0.0537 | 0.0597 | 0.0657 | 0.0457 |  | 0.0763 | 0.0772 | 0.0646 |  | 0.0596 | 0.0588 | 0.0347 | 0.0435 | 0.0473 | 0.0584 |
| W199D | 0.0247 | 0.0617 | 0.0607 | 0.0709 | 0.0705 |  | 0.0617 | 0.0703 |  | 0.0611 |  | 0.0594 | 0.0657 |  | 0.0565 | 0.0735 | 0.0612 | 0.0553 | 0.0619 |
